The campaign covered roughly 310,000 compounds. About 14,000 (4.5%) showed an effect of 50% or more. Effects have a minus sign here. This is one part of the list.
biological target: human ether-à-go-go-related gene (hERG) potassium channel (human, UniProt Q12809); test: primary screen, population patch clamp on CHO cells stably expressing hERG
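Further: peak tail current of the secondary pulse compared with the same well before compound.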

human ether-à-go-go-related gene (hERG) potassium channel, sequence (Q12809 whole entry, looked up): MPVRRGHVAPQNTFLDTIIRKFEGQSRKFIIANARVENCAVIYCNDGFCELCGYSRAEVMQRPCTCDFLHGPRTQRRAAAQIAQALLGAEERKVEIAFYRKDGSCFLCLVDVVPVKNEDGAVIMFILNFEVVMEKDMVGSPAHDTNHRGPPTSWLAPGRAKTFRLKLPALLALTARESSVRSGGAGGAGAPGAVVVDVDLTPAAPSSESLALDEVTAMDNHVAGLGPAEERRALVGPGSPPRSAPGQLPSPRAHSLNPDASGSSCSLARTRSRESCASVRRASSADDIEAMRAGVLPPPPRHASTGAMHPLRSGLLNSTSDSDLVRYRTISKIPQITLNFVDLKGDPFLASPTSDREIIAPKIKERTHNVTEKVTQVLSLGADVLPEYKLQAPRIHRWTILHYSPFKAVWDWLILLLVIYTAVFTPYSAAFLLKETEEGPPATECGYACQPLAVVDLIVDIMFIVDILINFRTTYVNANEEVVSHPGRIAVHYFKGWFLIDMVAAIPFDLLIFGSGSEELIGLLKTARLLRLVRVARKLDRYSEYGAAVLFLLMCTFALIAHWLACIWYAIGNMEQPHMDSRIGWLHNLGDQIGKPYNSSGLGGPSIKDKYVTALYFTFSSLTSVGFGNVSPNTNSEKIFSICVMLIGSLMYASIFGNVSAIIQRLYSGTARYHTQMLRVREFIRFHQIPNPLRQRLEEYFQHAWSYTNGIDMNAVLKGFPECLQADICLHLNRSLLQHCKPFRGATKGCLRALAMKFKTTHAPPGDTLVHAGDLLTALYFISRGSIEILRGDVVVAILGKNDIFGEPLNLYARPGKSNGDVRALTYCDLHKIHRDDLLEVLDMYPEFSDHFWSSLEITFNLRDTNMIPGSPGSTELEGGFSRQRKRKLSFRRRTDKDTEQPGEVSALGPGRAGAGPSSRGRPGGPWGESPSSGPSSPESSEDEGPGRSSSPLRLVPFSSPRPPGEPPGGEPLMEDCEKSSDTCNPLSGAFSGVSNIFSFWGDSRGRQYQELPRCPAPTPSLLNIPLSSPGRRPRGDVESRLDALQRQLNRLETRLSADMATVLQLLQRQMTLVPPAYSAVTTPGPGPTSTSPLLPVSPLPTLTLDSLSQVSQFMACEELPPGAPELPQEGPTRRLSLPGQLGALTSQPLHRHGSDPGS

Row | Compound | hERG current change (%, negative = inhibition) at 10uM [%]
1 | Cc1cccc(NC(=S)NN2CCN(C)CC2)c1 | -17.1
2 | O=C(CCCOc1ccccc1)Nc1cccc(C(=O)O)c1 | 12.6
3 | COC(=O)CSc1nccc(C)n1 | 14.6
4 | CCCCc1nc2cc(C(=O)N3CCCC3)ccc2o1 | 13.1
5 | Cc1ccc(C(=O)NNC2=Nc3cc([N+](=O)[O-])ccc3OC2)cc1 | 9.68
6 | Cc1cc(NS(=O)(=O)c2ccc(NC(=O)c3ccc([N+](=O)[O-])c(Cl)c3)cc2)no1 | 6.24
7 | COc1ccc(NC(=O)C2Cc3ccccc3O/C2=N\O)cc1 (centres unmarked) | 13.8
8 | NS(=O)(=O)c1cc2c(cc1Cl)NC(C1CC3C=CC1C3)NS2(=O)=O (centres unmarked) | 15
9 | Cc1cccc(CN2CCN(C(=S)Nc3ccccc3)CC2)c1 | 1.77
10 | CCn1c(SCc2ccccc2)nnc1-c1ccc(S(=O)(=O)N2CCCCC2)cc1 | -36.2
11 | CC(C)C(=O)N(Cc1cc2ccccc2[nH]c1=O)C(C)(C)C | -0.303
12 | CCOc1ccc(NC(=O)CN(C)C(=O)c2cccnc2SC)cc1OCC | 6.23
13 | N#Cc1ccc(S(=O)(=O)N2CCN(C(=O)[C@@H]3CCCN3C(=O)c3cccs3)CC2)cc1 | -40.6
14 | COc1cc(/C=C(\NC(=O)c2cc(OC)c(OC)c(OC)c2)C(=O)NC(C(=O)O)c2ccccc2)cc(OC)c1OC (centres unmarked) | -2.38
15 | O=C(C1CCN(S(=O)(=O)c2cccc3cccnc23)CC1)N1CC=C(c2ccccc2)CC1 | -23.2
16 | CC(C)N(CC#CCC1(O)c2ccccc2-c2ccccc21)C(C)C.Cl | -22.3
17 | Cc1cccc2sc(N(CCCN(C)C)C(=O)c3ccco3)nc12.Cl | -74.9
18 | COc1ccc2c(c1OC)CN1CCc3cc4c(cc3C1C2)OCO4 (centres unmarked) | -16.5
19 | Cn1c(N2CCN(C(=O)Nc3ccc(C(F)(F)F)cc3)CC2)nc2ccccc21 | -41.3
20 | N#CC(C(=S)Nc1ccccc1)c1nc2ccccc2[nH]1 (centres unmarked) | 11.2
21 | N/C(=N\c1nc2ccccc2o1)NC(=O)C(Cc1ccccc1)N1C(=O)c2ccccc2C1=O (centres unmarked) | 15.8
22 | Cc1ccc(/C=C/C(=O)N2CCN(S(=O)(=O)/C=C/c3ccccc3)CC2)o1 | -8.63

Row | Compound | hERG current change (%, negative = inhibition) at 10uM [%]
23 | Cc1onc(-c2ccccc2)c1C(=O)Nc1nc2c(s1)C(=O)CC(C)(C)C2 | 2.83
24 | O=C(N/N=C\c1ccc2c(c1)OCO2)c1ccc(Cn2cc(Br)c([N+](=O)[O-])n2)o1 | -8.65
25 | CCOc1ccc2nc(SCC(=O)NCC3CCCO3)c(C#N)cc2c1 (centres unmarked) | -11.2
26 | Cc1c(C(=O)Nc2ccc(F)cc2)oc2ccc(S(=O)(=O)N3CC(C)CC(C)C3)cc12 (centres unmarked) | 16.3
27 | CCc1ccc(NC(=O)COc2ccc(/C=C(/C#N)c3nc4ccccc4[nH]3)cc2OC)cc1 | 5.07
28 | Cc1ccc(-n2nnnc2SC(C)C(=O)NCC(=O)Nc2ccc(F)c(F)c2F)c(C)c1 (centres unmarked) | -14.7
29 | O=C(CN(Cc1ccc2c(c1)OCO2)C(=O)c1cnsn1)NC1CCCC1 | 6.24
30 | CC(C)=N/N=C1/NC(=O)C(Cc2ccccc2)S1 (centres unmarked) | 23.7
31 | CCOc1cc(CN2CCCC(CO)(Cc3ccc(F)cc3F)C2)ccc1OC (centres unmarked) | -55.9
32 | O=C(Nc1ccccc1C(=O)N1CCN(c2ccccc2)CC1)c1ccco1 | -4.05
33 | CCOC(=O)c1c(CN(C)C)n(-c2ccc(C)cc2)c2cc(Br)c(O)cc12 | -35.8
34 | CSc1ccccc1C(=O)Nc1ncn[nH]1 | 19.3
35 | CCCCNC(=O)C1c2ccccc2Oc2ccccc21 | 18.3
36 | Cc1ccc(CSCCC(=O)NCCC2=CCCCC2)cc1 | 1.38
37 | COc1ccc2c(c1OC)C(=O)OC2Nc1ncc(Br)cc1Br (centres unmarked) | 7.16
38 | O=C(COc1ccccc1)Nc1cccc2nsnc12 | -27.4
39 | COc1ccc(NC(=O)Cn2nnc(C(=O)NCc3ccc4c(c3)OCO4)c2N)c(OC)c1 | 18.1
40 | COc1ccc(OCCCC(=O)Nc2ncn[nH]2)cc1 | 13
41 | Cc1ccc(SCC(=O)NC(C)(C)C)cc1 | -8.22
42 | COc1ccc(CCN2CC34C=CC(O3)C(C(=O)NCc3ccccc3Cl)C4C2=O)cc1OC (centres unmarked) | 0.83
43 | C=CCn1c(SCC(=O)NCCc2ccccc2)nnc1C1CC1 | -11.9
44 | COCCCN(C(=S)Nc1cc(Cl)cc(Cl)c1)C(C)c1ccccn1 (centres unmarked) | -38.8

— article PMC4336329 (PLoS ONE, 2015)
